The source of these data is patent US5175190A, “Medium chain fatty acids of C8-10 for the treatment of skin lesions” (priority 1991, dated 1992).

The test system of one data set is Tumor (intra-hepatic). The note with it: tumor cells implanted in liver, around 80 mg.
Data set [1] deals with rodent tumor cells and normal lymphocytes. The note with it: no test described; cited from earlier work.
For data set [2] the following is noted: no test described, cited from earlier work.
The conditions of data set [3]: mouse, in vivo.
The conditions of data set [4]: directly into the bloodstream; no test described; cited from earlier work.
For data set [5] the following is noted: no test described; cited from earlier work.
A further data set relates to Tumor (W256). The note with it: rat, W256, intraportal.
Data set [6] in a line: Distribution of 1-^14 C-oleic acid in liver lipids (TLC zones). The note with it: mouse, in vivo. How it is done:
The distribution of radioactivity was examined. Liver tissue was extracted with methanol: chloroform (1:2) and the chloroform phase was evaporated and spotted on thin layer chromatogram sheets. Autoradiograms were prepared and three zones were eluted, corresponding to esterified nonpolar lipids, fatty acids and phospholipids (Table 2).

Another data set is described as follows: Uptake by adipose tissue. The format is in vivo. The note with it: mice; after 30 min. How it is done: (§1) In a few experiments, other tissues were examined. […] In mice, portal blood after 30 min. contained 0.33 μmoles/ml.
A short description of a further data set: Uptake by lung. The note with it: rat; one experiment. The format is in vivo. The method, then:
as §1

Data set [7] concerns β-oxidation of fatty acids. The note with it: no test described; cited from earlier work.
A further data set concerns transplanted tumor M114. Nature of the data set: Treatment of implanted liver tumors in mice with sodium caprylate. It counts as in vivo. The method, then: Mice were implanted with tumors and the tumors allowed to grow for six days. At this time, the tumor is about 5 mm or so in diameter, weighing 30 mg, and its own vascularization is well established. Mice were injected once daily intraperitoneally with 100 μmoles sodium caprylate, mixed with sucrose. Treatment continued for four days, then stopped. […] Tumors were treated and then removed a few hours later in order to examine the effects microscopically.

The subject of a further data set is Nb2 tumor. Kind of data set: Treatment of rats implanted with the Nb2 tumor.

`CCCCCCCC(=O)O` [caprylic acid, octanoic acid]: the “sufficiency of uptake by tumor cells for lysis” value in the data set on Tumor (intra-hepatic) is on record as “clearly sufficient”. Also, the lytic activity result in [1] is “lytic”. Moreover, in [2], the “oxidation to CO2 compared with oleic acid” value is given as “Considerably more”. Besides, the rate of oxidation entry in [2] (β-oxidation) is “oxidized very rapidly”. In data set [3], the “initial uptake compared with oleic acid” value is “considerably higher than that of oleic acid”. In addition, the “absorption from the gut” value in [4] is recorded as “rapidly absorbed”.

`CCCCCCCC/C=C\CCCCCCCC(=O)O` [oleic acid]: the “reduction of stratum corneum barrier” value in [5] is “greatly reduced”.

As for `CCCCCCCC/C=C\CCCCCCC[14C](=O)O` [1-^14 C-oleic acid], in the data set with Tumor (W256), the “uptake by tumor compared with liver” value is on record as “the same as surrounding liver tissue”. Moreover, in data set [6], the “% Distribution, free fatty acids” value was found to be 12%; the “% Distribution, neutral nonpolar lipids” value amounted to 57.2 ± 4%; the “% Distribution, phospholipids” value is 30.8 ± 3%; the “% Distribution, total esterified fatty acids” value came out at 88.0%. Moreover, in “Uptake by adipose tissue”, the “uptake by adipose tissue compared with liver” value is “varied and was sometimes much higher than liver”. Moreover, the “uptake by lung compared with liver” value in “Uptake by lung” is on record as “the same as liver”.

On to `CC(C)=CCC/C(C)=C/C(=O)O` [geranic acid], for which the “block of β-oxidation of fatty acids” value in [7] is “blocks β-oxidation of fatty acids”. Besides, in data set [1], the “effect on cytolytic effect of other fatty acids” value was “enhances the cytolytic effect of other fatty acids” and the lytic activity result is “lytic”.

As for `CCCCCCCC(=O)[O-].[Na+]` [sodium caprylate], the “microscopic effects on tumor” value in the data set on transplanted tumor M114 (after four hours) was “many cells with damaged nuclei were evident”; in the data set with transplanted tumor M114 (two injections four hours apart, three hours later), “extensive destruction, with considerable lysis having occurred”. Also, the tumor growth entry with transplanted tumor M114 (day 20, 100 μmoles ip once daily for four days from day 6) is “the tumors had recurred, but were smaller, being about one week behind controls in growth”. Besides, the “microscopic effects on tumor cells that invaded the lung” value in the data set on transplanted tumor M114 (one instance) was “the same evidence of damage as in the liver”. Moreover, the tumor eradication result with transplanted tumor M114 (treatment begun day 4 following implantation, tumors about 3 mm) is reported as “eradicated by day 8”. In the data set on Nb2 tumor, the “tolerance of ip injection” value is “did not tolerate ip injection of sodium caprylate well”.
